Test results published in the supplement of paper PMC10126150.
Values marked as one replicate rest on one cluster of the flow cell; about a third of the high ones do not repeat.

Tested on: ATP
Assay: switch fluorescence ratio, 500 uM ATP over buffer (Cy3 cluster intensity, sum of 5 cycles each) (fold (ratio)); higher = stronger signal-on switching upon ATP binding; sequences stand for … in TCGTCGGCAGCGTCAGATGTGTATAAGAGACAGTTTTTTTTTTTTTTTTTTTTTTTTT…TC
Conditions: aptamer strand: ATP DNA aptamer (quencher-CACCTGGGGGAGTATTGCGGAGGAAGG + anchor), 100 nM annealed; ATP concentration: 500 uM; one replicate
How it was run: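 After annealing to 100 nM quencher-labelled ATP aptamer, Cy3-labelled switching-strand clusters on a modified Illumina MiSeq flow-cell were imaged in selection buffer. A second image followed after 15 min with 500 uM ATP at 22 °C, and five such buffer/ATP cycles were done, each separated by NaOH stripping and re-annealing. The fluorescence ratio, averaged per switch-domain sequence, is summed target-cycle over summed buffer-cycle Cy3 intensity per cluster, with clusters outside 100-1000 RFU excluded.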
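Note: ATP exposure 15 min at 22 °C before imaging.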

Sequence	switch fluorescence ratio
ATGTTCGGGT	1.03
ATTACAACAC	1.24
TATACGACCG	1.17
GGATCCATAT	1
TGATCGAGTC	1.06
CCAAGGTGCG	1.36
CAATCACATC	1.07
GGTGTACTAA	0.994
CATATTAAAA	0.992
TCGTATAACT	1.03
GACGCATAAT	4.37
GGTATCGACA	0.997
ATTAACTTGA	1.07
TAGAAGGGT	0.966
CCCACAGATC	1.14
AGATGCTGTT	1.02
GGGGGCTTTA	0.988
CTTGACATTG	0.989
TGCTTAAGCC	0.993
AGCAGCACGA	1.28
CCGCCGACGG	1.35
GCGGCTGAT	0.984
GTGCGGAAGT	1.03
AGCTATCCAT	0.995
TTCCAAAGCG	1.02
TTCTACTTGT	0.988

Sequence	switch fluorescence ratio
TTGCGCATGT	1.07
ATGGTGTAAC	1.02
CACAACACAC	1.41
GCGGCTGCTT	0.985
AGTATGACTC	1.03
ATCGACGGTC	1.14
TTACGAG	1.03
AAATCGGACT	1.02
GGAGCAGGAT	1.06
GGTATTCTAC	0.983
GGTTTGGA	0.956
CTGGCTTATG	0.958
CACGAATTGC	1.1
GAAGGGTGTG	0.977
CTCTGGCTCT	0.985
GTTGCGTTTG	0.986
CTTGTAAAGT	1.05
GTTTCATGCA	0.987
ACCTTGTGAA	0.971
CCTAAATGGA	0.996
CCTCGGCCTG	1.52
CCTTCATGTC	1.18
CCGACAGGGG	1.87
GATTAAATTG	0.988
CCTTGGCTG	1.03
TGCGAGACAA	1.24

Sequence	switch fluorescence ratio
TGGGTGCTTG	1.01
AGTGTATAAG	0.985
ATAGTGTCCG	1.1
ATTACAAAGC	0.958
TGGCATTGTT	0.981
CGCTATCATG	1.04
TTATAGACCA	1.08
CATAGACATC	1.01
TTGCGGATTA	1.02
AGTAGATGTG	1.01
GAGACGGTGT	1.06
ATATTCATGT	0.976
ACCCGACGAT	1.48
GGGATAACGC	0.988
TATTTTT	0.987
AAGTACTCTG	1.13
ATTCTTGATA	1.02
AACTCCCGTC	1.04
ACGCGGTGAG	1.03
GCTTTTGTCG	1.02
GTCGTGGTGG	0.975
CGCGAGCTTG	1.02
GCCCTACATG	1.03
GATGGCGCGT	1.07
TAGGTTGCTC	0.97
AGTGCTAGTA	0.95

Sequence	switch fluorescence ratio
TTTACAGCCG	1.02
TTTCGCTAAA	1.03
GGCATTCTTG	1.01
ACCTCGAAGC	1.54
CTCACATG	0.973
TACGTTCTAC	1.17
CCTTTGTGAC	1.49
ATCTCGGCTG	0.993
TGGCTCCCC	1.23
GTCTCCGAAG	1.69
ATCTCTTTTC	1.01
GCAATTTTAA	0.973
AAGTCTAAAA	1.07
TGCTTAGGAT	0.985
ACCTAGACAT	1.04
AAAATGACTC	1.02
TGATTGGGAT	0.972
CTACCACATA	1.12
CTGTGTACT	1.03
GAAAGCCTAT	1.01
CGTTGAGGGA	1.02
GAGGCGCCAG	0.966
CCTACCGGA	1.19
CGGGGCGTGA	1.05
GATCTGTTT	0.962
CAATTGCTCA	1.02

Sequence	switch fluorescence ratio
CTAATGGACG	1.01
TCCCGGGTTC	1
TATTTGGTAA	0.96
CGTCGTCAGC	1.07
GCCGGCTTAC	0.958
AAGTTAAATT	0.994
CGTGCTGG	0.971
ACGTCGCCGT	0.859
GGAATAATC	1
AGACTATACC	1.24
GTGTGTTTCC	1.06
CTAGGTCTGA	1
CCCAATTTTT	1.11
TGCCTTCGGC	1
AGGGGAAAAA	1.03
CCTGGGTTAC	1.53
TCTGAAAAGT	0.996
AGTGAGACCC	0.98
TGGACGGCGA	1.15
ACGTTGCCAA	1.05
CATTATTCAA	0.996
TTTGCTCCT	1
CGCCAGAGTA	0.983
AGATTTATTA	0.99
GTTAGCTCGC	0.974
AGACGGGAAT	0.979

Sequence	switch fluorescence ratio
ATATACGTTT	1
TGATCAGAGG	1.02
GCCTGGTAAG	1.01
GTATGGATGC	0.974
GAGGGGGTGT	1.02
CACTTTGGCA	0.987
GGGTCGACCT	1.06
GATCTTCGTC	1.01
CAGAATTATG	1.02
CAACGGGCGT	1.04
AGTTTTGTGA	1.01
CTTTCGTCGC	1.42
CCTTAATCGT	1
ATAACTAATT	1.05
GGCGTGATCC	1.06
GTTCCGGCAA	3.24
CTTAGGCCTA	1.01
GAGATACCGA	1.05
CACGTTCATC	1.06
TTTTGGGCG	0.968
GAATAACTAC	1.05
TAATGACGGA	0.992
CGTGCCCGCG	1.01
ACTTTCTCCA	1.41
CTCGTTCTTA	1.02
GAAATCTTCG	1.65

Sequence	switch fluorescence ratio
ACCTTTGGAG	1.17
GCGAGCGCCA	0.983
CGAAGGGCAT	0.979
TCTTCCTTTT	1.27
AGGGCCCCAT	0.97
ACGTTGTGTT	0.974
CGTCGACGCC	1.02
AGCAAGGCGA	1.17
ATTCGGGCA	0.912
GGTCCAGGCG	0.984
AGATGTGCAC	0.958
CAGCATGCCA	0.99
TACTCTAGGG	1
CACGGTCAGG	1.06
AACGTGTATG	1.01
TTTCATGGTT	1.01
AGGTACAACG	1.02
CTTTGGGCA	0.982
TTAAGGAATA	0.944
CCGTCGGTCC	1.32
CATTAGTA	1
TAAATTTCGC	0.99
GGTCTGCCGT	0.92
TAAAAACTAG	1
TCGTCTAGGA	1.03
TGGCCGCGAA	1.21

Sequence	switch fluorescence ratio
ACGGTCTTTT	1.03
TGCAGTTA	0.962
TGCAGTATAG	1
CCTACCATTG	1.24
CGATATGGAA	0.999
CCACTCGGGG	1.02
AGAAAAAGAA	0.946
TGCGGGATCC	1.11
TTAGTCTTGG	0.977
CCCCGTGCTT	1.24
TAAGCAGGGT	0.965
GGTACGTGCT	1.04
GTTAGGAGCC	0.978
CGGTCAACGT	0.971
TTCGATCGCT	1.02
GGGAATCAGG	0.977
ATGTAATAAA	1.02
ATCGAGGGTC	0.93
CGTATCGTCG	0.968
